Columns and labels:
SK-MEL-28 = assay: NCI in-vitro testing, SK-MEL-28 (Melanoma)
MDA-MB-231/ATCC = assay: NCI in-vitro testing, MDA-MB-231/ATCC (Breast Cancer)
A498 = assay: NCI in-vitro testing, A498 (Renal Cancer)
SF-268 = assay: NCI in-vitro testing, SF-268 (CNS Cancer)
NCI-H226 = assay: NCI in-vitro testing, NCI-H226 (Non-Small Cell Lung Cancer)
OVCAR-4 = assay: NCI in-vitro testing, OVCAR-4 (Ovarian Cancer)
HOP-62 = assay: NCI in-vitro testing, HOP-62 (Non-Small Cell Lung Cancer)
SNB-75 = assay: NCI in-vitro testing, SNB-75 (CNS Cancer)
SNB-19 = assay: NCI in-vitro testing, SNB-19 (CNS Cancer)
NCI-H23 = assay: NCI in-vitro testing, NCI-H23 (Non-Small Cell Lung Cancer)
[1] = Log10 Concentration −4.0 (Molar)
[2] = Log10 Concentration −5.0 (Molar)
[3] = Log10 Concentration −6.0 (Molar)
[4] = Log10 Concentration −7.0 (Molar)
[5] = Log10 Concentration −8.0 (Molar)

Q: How did the “Mean Optical Densities” value (SK-MEL-28; [1]) turn out when `OCc1cn(Cc2ccc(Cl)cc2)c2ccccc12` [Oncrasin K060, 1H-Indole-3-methanol, 1-[(4-chlorophenyl)methyl]-] was run?
A: 0.113

Q: What about the “Mean Optical Densities” value (SK-MEL-28; [2]) of the same molecule?
A: 0.600

Q: What about the “Mean Optical Densities” value (SK-MEL-28; [3]) of the same molecule?
A: 0.702

Q: What about the “Mean Optical Densities” value (SK-MEL-28; [4]) of the same molecule?
A: 0.786

Q: What about the “Mean Optical Densities” value (SK-MEL-28; [5]) of the same molecule?
A: 0.754

Q: What about the “Mean Optical Densities” value (MDA-MB-231/ATCC; [1]) of the same molecule?
A: 0.380

Q: And the “Mean Optical Densities” value (MDA-MB-231/ATCC; [2])?
A: 0.904

Q: And the “Mean Optical Densities” value (MDA-MB-231/ATCC; [3])?
A: 1.255

Q: And the “Mean Optical Densities” value (MDA-MB-231/ATCC; [4])?
A: 1.932

Q: And the “Mean Optical Densities” value (MDA-MB-231/ATCC; [5])?
A: 1.237

Q: What about the “Mean Optical Densities” value (A498; [1]) of the same molecule?
A: 0.056

Q: And the “Mean Optical Densities” value (A498; [2])?
A: 0.048

Q: And the “Mean Optical Densities” value (A498; [3])?
A: 0.120

Q: And the “Mean Optical Densities” value (A498; [4])?
A: 0.408

Q: What about the “Mean Optical Densities” value (A498; [5]) of the same molecule?
A: 1.394

Q: And the “Mean Optical Densities” value (SF-268; [1])?
A: 0.238

Q: And the “Mean Optical Densities” value (SF-268; [2])?
A: 0.859

Q: What about the “Mean Optical Densities” value (SF-268; [3]) of the same molecule?
A: 1.179

Q: And the “Mean Optical Densities” value (SF-268; [4])?
A: 1.215

Q: And the “Mean Optical Densities” value (SF-268; [5])?
A: 1.294

Q: And the “Mean Optical Densities” value (NCI-H226; [1])?
A: 0.168

Q: What about the “Mean Optical Densities” value (NCI-H226; [2]) of the same molecule?
A: 0.151

Q: And the “Mean Optical Densities” value (NCI-H226; [3])?
A: 0.182

Q: And the “Mean Optical Densities” value (NCI-H226; [4])?
A: 0.375

Q: What about the “Mean Optical Densities” value (NCI-H226; [5]) of the same molecule?
A: 0.884

Q: What about the “Mean Optical Densities” value (OVCAR-4; [1]) of the same molecule?
A: 0.294

Q: And the “Mean Optical Densities” value (OVCAR-4; [2])?
A: 0.487

Q: What about the “Mean Optical Densities” value (OVCAR-4; [3]) of the same molecule?
A: 0.553

Q: And the “Mean Optical Densities” value (OVCAR-4; [4])?
A: 0.950

Q: And the “Mean Optical Densities” value (OVCAR-4; [5])?
A: 1.135

Q: And the “Mean Optical Densities” value (HOP-62; [1])?
A: 0.290

Q: What about the “Mean Optical Densities” value (HOP-62; [2]) of the same molecule?
A: 0.569

Q: And the “Mean Optical Densities” value (HOP-62; [3])?
A: 0.756

Q: What about the “Mean Optical Densities” value (HOP-62; [4]) of the same molecule?
A: 0.985

Q: And the “Mean Optical Densities” value (HOP-62; [5])?
A: 1.182

Q: What about the “Mean Optical Densities” value (SNB-75; [1]) of the same molecule?
A: 0.171

Q: What about the “Mean Optical Densities” value (SNB-75; [2]) of the same molecule?
A: 0.846

Q: And the “Mean Optical Densities” value (SNB-75; [3])?
A: 1.193

Q: And the “Mean Optical Densities” value (SNB-75; [4])?
A: 1.227

Q: And the “Mean Optical Densities” value (SNB-75; [5])?
A: 1.223

Q: What about the “Mean Optical Densities” value (SNB-19; [1]) of the same molecule?
A: 0.400

Q: And the “Mean Optical Densities” value (SNB-19; [2])?
A: 1.287

Q: What about the “Mean Optical Densities” value (SNB-19; [3]) of the same molecule?
A: 1.463

Q: And the “Mean Optical Densities” value (SNB-19; [4])?
A: 1.518

Q: And the “Mean Optical Densities” value (SNB-19; [5])?
A: 1.682

Q: And the “Mean Optical Densities” value (NCI-H23; [1])?
A: 0.141

Q: And the “Mean Optical Densities” value (NCI-H23; [2])?
A: 0.807

Q: And the “Mean Optical Densities” value (NCI-H23; [3])?
A: 0.865

Q: And the “Mean Optical Densities” value (NCI-H23; [4])?
A: 0.975

Q: And the “Mean Optical Densities” value (NCI-H23; [5])?
A: 1.059

Source: patent US8883841B2, “Oncogenic ras-specific cytotoxic compound and methods of use thereof” (The Board of Regents of the University of Texas System, priority 2005, dated 2014)
